Assay results taken from PubChem BioAssay AID488969 (Vanderbilt High Throughput Screening Facility, 2010).
In all, about 110,000 compounds were measured (“z-score”: median about -0.1, highest 2% from about 2 on). The list shows a part of the results.

Each molecule was assayed against Metabotropic glutamate receptor 8 (Rattus norvegicus) (UniProt P70579) (assay: mGluR8 Gi/Go-coupled signaling modulation – cell-based, rat, thallium flux, HTS, primary screen (AID 488969)). Conditions: HEK293 rat mGluR8, GIRK (G protein-gated inwardly rectifying potassium channel) thallium flux, FluoZin2; at 10 µM; stronger effect = higher value; submaximal glutamate (EC20) added with thallium.
Chain of UniProt P70579 (P70579 whole entry, looked up): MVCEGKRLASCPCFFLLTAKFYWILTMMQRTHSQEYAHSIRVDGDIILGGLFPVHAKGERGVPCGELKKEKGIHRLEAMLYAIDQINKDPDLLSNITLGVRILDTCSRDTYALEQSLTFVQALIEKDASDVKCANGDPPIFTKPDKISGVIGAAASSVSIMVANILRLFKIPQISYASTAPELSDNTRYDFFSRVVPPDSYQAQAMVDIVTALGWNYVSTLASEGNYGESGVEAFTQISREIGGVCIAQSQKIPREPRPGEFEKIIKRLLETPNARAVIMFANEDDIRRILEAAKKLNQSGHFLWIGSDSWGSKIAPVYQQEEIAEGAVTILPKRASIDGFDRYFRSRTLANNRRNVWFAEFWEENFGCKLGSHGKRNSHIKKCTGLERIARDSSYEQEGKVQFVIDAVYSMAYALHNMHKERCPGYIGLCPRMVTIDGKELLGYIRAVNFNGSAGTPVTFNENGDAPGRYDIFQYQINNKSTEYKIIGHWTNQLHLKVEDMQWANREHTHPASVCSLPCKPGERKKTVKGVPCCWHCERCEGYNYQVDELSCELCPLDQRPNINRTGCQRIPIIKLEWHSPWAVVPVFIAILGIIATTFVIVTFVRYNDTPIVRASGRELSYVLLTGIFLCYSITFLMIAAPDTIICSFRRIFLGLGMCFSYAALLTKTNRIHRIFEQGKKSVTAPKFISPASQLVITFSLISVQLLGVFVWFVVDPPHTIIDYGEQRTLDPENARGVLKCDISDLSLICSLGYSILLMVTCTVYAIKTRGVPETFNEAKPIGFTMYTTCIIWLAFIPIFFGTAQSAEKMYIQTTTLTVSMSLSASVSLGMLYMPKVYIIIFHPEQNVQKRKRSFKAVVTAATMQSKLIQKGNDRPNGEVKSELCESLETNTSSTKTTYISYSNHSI

Compound	z-score
CC(C)NC(=O)CN1CCN(c2ncccn2)CC1	-0.281
Cc1ccc(Cl)cc1N1CCN(C(=O)COc2ccc3c(c2)CCC3)CC1	0.176
C=CCN1C(=O)c2ccccc2Sc2ccc(C(=O)N3CCN(C)CC3)cc21	-0.000615
Cc1ccc(-c2nc3ccccc3[nH]2)cc1N	0.0589
O=C(Nc1ccc(F)cc1)c1cccc(NC(=O)C2C3CC4OC(=O)C2C4C3)c1 (stereo unspecified)	-0.357
Cc1cc(N)n(-c2ccc3ccccc3c2)n1	-0.137
N#Cc1cnn2c1nc(N1CCOCC1)c1ccccc12	-0.44
COc1cccc(C(=O)/C=C/c2ccc(OCC#N)c(OC)c2)c1	-0.357
CC(C)C(=O)Nc1ccc2c(c1)nc1n2CCSC1	-2.11
O=C(CN(Cc1cccs1)S(=O)(=O)c1ccc(S(=O)(=O)N2CCCCC2)cc1)Nc1ccccc1	-0.158
Cc1ccccc1-n1nnnc1SCCCC(=O)c1ccc(F)cc1	-0.474
CCCn1cc(SCC(=O)Nc2ccc3c(c2)OCO3)c2ccccc21	-0.253
Cc1nc(NC(=O)CCCC(=O)Nc2nc(C)c(C)s2)sc1C	0.506
CCOCCN(C=O)c1cccc(OC)c1	-0.166
COC(=O)Nc1ccc(S(=O)(=O)N(C)CC(F)(F)C(F)F)cc1	-0.0544
Cc1ccc(C(=O)CSc2nnc(-c3ccccc3)n2-c2ccccc2)o1	-0.348
COc1cccc(NC(=S)N(Cc2ccco2)C(C)c2ccco2)c1 (stereo unspecified)	-1.14
COc1c(C(C)C)cc(NC(C)=O)cc1C(C)C	-0.485
O=[N+]([O-])c1cc(C(F)(F)F)ccc1Sc1nccn1Cc1ccccc1	-0.351
CC(=O)Nc1ccc(NC2=CC(=O)CC(C)(C)C2)cc1	-0.413
COc1ccc(Sc2ccccc2CN(C)C)cc1OC	-0.000634
Cn1c(SCC(=O)NC(C)(C)C)nc(O)cc1=O	-0.0162
CCCCOc1ccc(C(C)NC(=O)CCS(=O)(=O)Cc2ccc(Cl)cc2)cc1 (stereo unspecified)	0.0425

Compound	z-score
Cc1cccc(-n2nc(C(=O)Nc3ccccc3)n3c(=O)cc(-c4ccccc4)nc23)c1	-0.275
CCCC(=O)Nc1nnc(SCC(=O)NCc2cccs2)s1	-0.733
Cc1c(NC(=O)/C(C#N)=C/c2cccs2)c(=O)n(-c2ccccc2)n1C	0.559
CCN1C(=O)N/C(=C/c2ccc(Sc3ccc(C)cc3)o2)C1=O	0.102
Cc1cc(C)c2c(N)c(C(=O)NN3CC(=O)N(c4ccccc4F)CC3=O)sc2n1	-0.153
COCCCNC(=S)N1CCN(S(C)(=O)=O)CC1	-0.135
COc1ccc(C(=O)C(OC(=O)c2ccccc2Cl)c2ccccc2)cc1 (stereo unspecified)	-0.172
CCn1c(Cc2ccccc2)nnc1SCC(=O)N1CCCCC1	-0.423
CCSc1nnc(NC(=O)C2CCCCC2)s1	0.298
Cc1ccc(-n2c(SCc3nnc4n3CCC4)nnc2-c2ccccc2)cc1	1.68
COc1ccc(/C=C2\CCCc3c2nc2ccccc2c3C(=O)OCC(=O)c2c(N)n(C)c(=O)n(C)c2=O)cc1	-0.224
CSc1nc(C)cc(SCC(=O)Nc2ccccc2)n1	0.363
Cc1c(NC(=O)c2coc(=O)c(Br)c2)c(=O)n(-c2ccccc2)n1C	-0.0547
Cc1ccccc1C(CC(=O)c1cccs1)C(C#N)C#N (stereo unspecified)	-0.178
Cc1ccc(SCCC(=O)N/N=C/c2ccccc2O)cc1	-0.049
NC(=O)C1CCN(Cc2nc3cc(Cl)ccc3c(=O)[nH]2)CC1	0.184
C=CCn1c(C(C)NC(=O)C(C)(C)C)nc2ccccc21 (stereo unspecified)	0.41
Cc1ccc(N(Cc2ccc(C(=O)NC3CCCCC3)cc2)S(C)(=O)=O)cc1C	-0.289
O=C(CN(c1ccccc1)S(=O)(=O)c1ccccc1)N/N=C/c1ccco1	-0.795
O=C(NCc1cccs1)C1CC(=O)N(C2CCCC2)C1 (stereo unspecified)	0.227
Cc1ccc2c(c1)CC1(CN2C)C(=O)OC(C)(C)OC1=O	-0.249
COc1ccc(C(=O)Nc2c(C)ccc3nsnc23)cc1[N+](=O)[O-]	0.723
O=C1CC(N(C(=O)c2ccco2)c2ccc(F)cc2)C(=O)N1c1ccc(F)cc1 (stereo unspecified)	0.415

Compound	z-score
CCCSc1nsc(SCCC)c1C#N	-0.0653
Cc1c(Nc2ncnc3c2cnn3-c2ccccc2)c(=O)n(-c2ccccc2)n1C	-0.362
O=C(c1cc(=O)[nH]c2ccccc12)N1CCN(S(=O)(=O)c2ccc3ccccc3c2)CC1	0.0401
O=C(OCc1ccc(Cl)cc1Cl)c1ccncc1	0.0599
O=C(c1cnc2n(c1=O)CCS2)N(c1ccccc1)C1CCCCC1	0.121
O=C(NCCCN1CCOCC1)c1ccc(CS(=O)(=O)c2ccc(Br)cc2)o1	-0.0398
CN(C)CCCO/N=C(\c1ccccc1)c1ccncc1	1.01
CN(C)c1cccc(C(=O)OCC(=O)Nc2nccs2)c1	-0.0253
Nc1nc(CSc2nc3ccccc3[nH]2)nc(N2CCOCC2)n1	-0.701
N#CC1=C(N)OC2=C(CC/C2=C\c2ccccc2Cl)C1c1ccccc1Cl (stereo unspecified)	-0.183
Cc1ccc(Cn2nnc3c(=O)[nH]c(C4CCCN(S(=O)(=O)c5ccccc5)C4)nc32)cc1 (stereo unspecified)	0.32
COc1cccc(-c2nc(CS(=O)(=O)CC(=O)N3CCc4ccccc43)c(C)o2)c1	-0.134
Cc1cccc(S(=O)(=O)C(C#N)c2nc3ccccc3nc2N2CCOCC2)c1 (stereo unspecified)	-0.193
COc1ccc(CCNC(=O)CC2SC(=NCCC(C)C)NC2=O)cc1OC (stereo unspecified)	-0.444
O=c1[nH]c2ccc(Cl)cc2c(-c2ccccc2)c1SC(=S)N1CCCCC1	-0.145
COc1ccccc1NS(=O)(=O)c1cc(NC(=O)Nc2ccc(Cl)cc2Cl)ccc1N1CCCCC1	0.372
Cc1ccccc1Cn1nnc(-c2ccc3c(c2)OCO3)n1	-1.14
O=C(CCCO)N/N=C/c1cc(Br)ccc1O	-0.0384
CCOCCCNC(=O)c1ccc2c(c1)ncn2C1CCCC1	-0.215
Cn1c(SCc2nc(-c3ccc(Cl)cc3)no2)nnc1-c1ccccc1	-0.146
CC1CN(C(=O)c2ccccc2)c2ccccc2NC1=O (stereo unspecified)	0.401
N#Cc1c(NC(=O)CSc2nc3ccccc3s2)sc2c1CCCC2	0.197
CCS(=O)(=O)Nc1cccc(-c2nc3cccnc3s2)c1C	-0.0197

Compound	z-score
CN(C)CCCN1C(=O)C(=O)/C(=C(/O)c2ccc3c(c2)OCO3)C1c1ccco1 (stereo unspecified)	0.0087
CC1CCCN(C(=O)c2ccc3c(c2NCCO)C(=O)c2ccccc2C3=O)C1 (stereo unspecified)	0.318
Cc1occc1C(=O)N/N=C/C1=C(N2CCOCC2)C(=C\c2ccc(Cl)cc2Cl)/CC1	0.0547
COc1ccc(C(=O)Nc2ccc3nc(N4CCCCC4)cc(C)c3c2)cc1OC	-0.383
O=[N+]([O-])c1cc(-c2nc(-c3ccncc3)no2)ccc1Cl	0.67
CCn1c(NCc2cc(OC)ccc2OC)nc2ccccc21	-0.0532
Cc1cc(C)nc(N2CCC(C(=O)NC3CCCCCC3)CC2)n1	0.0648
CC(CNC(=O)C1CCCCC1C(=O)O)c1ccccc1 (stereo unspecified)	0.171
CC1=C/C(=N\OS(=O)(=O)c2ccccc2)C=CC1=O	3
COc1ccc(NC(=O)C2(c3ccc(NC(=O)c4ccc(OC)c(OC)c4)cc3)CCCC2)cc1	-0.26
O=C(Cc1cccs1)Nc1ccc(N2CCOCC2)cc1	0.0497
COC(=O)c1sc(NC(=O)c2csc3c2CCCC3)nc1C	0.174
Cc1cc(C)c2nc(C(F)(F)F)nc(N3CCN(C(=O)c4ccco4)CC3)c2c1	-0.263
CCOC(=O)CSc1nnc(Cc2ccccc2)n1-c1ccc(C)cc1	-0.0699
CCOc1ccc(Cc2c(Cl)nc(SC)nc2N(C)C)cc1	-0.458
CCN1C(=O)CC(NNC(=O)c2ccc(Cl)cc2)C1=O (stereo unspecified)	0.0625
Cc1ccc(/C=N/NC(=O)c2cccc(S(=O)(=O)Nc3ccccc3Cl)c2)o1	-0.205
COc1ccc(OC)c(S(=O)(=O)N(C)CC(=O)Nc2ccc3c(c2)OCO3)c1	0.377
CCOC(=O)C(CCOc1cccc(CC)c1)C(=O)OCC	-0.709
Cc1nnc(SCc2ccc(C(=O)O)cc2)s1	-0.157
CC(=O)c1n[nH]nc1Nc1nc(C)cc(C)n1	0.00428
Cc1ccc(S(=O)(=O)N2c3ccccc3OCC2C(C)(C)C)cc1 (stereo unspecified)	-0.00945
COc1ccc(C2C(C(=O)Nc3cccnc3)=C(C)Nc3nc(-c4ccco4)nn32)cc1 (stereo unspecified)	0.0344

Compound	z-score
Nc1nonc1-c1noc(-c2ccc(Br)o2)n1	-0.0126
COc1cccc(/C=C/C(=O)c2ccc(NS(=O)(=O)c3ccc(C)cc3)cc2)c1	-0.162
COc1cccc(CNCCSc2nnnn2C)c1OC	0.709
COC(=O)COc1ccc(-c2nn(C)c(=O)c3ccccc23)cc1	-1.28
O=C(CN1C(=O)C2CC=CCC2C1=O)Nc1nnc(SCc2ccc(F)cc2)s1 (stereo unspecified)	-0.317
O=C(CN(Cc1ccccc1F)C(=O)Cn1nnc(-c2cccs2)n1)NC1CCCCC1	0.115
C=CCOC(=O)/C(=C\C=C\c1ccccc1)NC(=O)c1ccccc1	-0.578
O=C(Nc1ccccc1)C1=C(O)CC(c2ccc(Cl)cc2)N2CCN=C12 (stereo unspecified)	-0.724
O=C(Nc1c(C(=O)c2ccccc2)oc2ccccc12)c1cc(-c2ccccc2O)n[nH]1	0.0207
CCCCN(C(=O)CSc1nncn1-c1ccccc1)c1c(N)n(Cc2ccccc2)c(=O)[nH]c1=O	-0.301
O=C(Nc1nnc(C2CC2)s1)C1Cc2ccccc2CN1S(=O)(=O)c1cccs1 (stereo unspecified)	-1.65
c1ccc(CSc2nnc(NC3=NCCCCC3)s2)cc1	-0.549
O=C(NNC1=C(C(=O)C(F)(F)F)CCC1)c1ccc(Br)cc1	1.93
CC1CCC(NC(=O)CN2CCCN(Cc3ccc(F)cc3Cl)C2=O)CC1 (stereo unspecified)	0.115
O=C(CN1CCCc2ccccc21)N/N=C/c1ccc(O)cc1O	0.247
COC(=O)c1cc([N+](=O)[O-])ccc1N1CCN(Cc2ccccc2)CC1	-0.306
O=C(NCC1CCCO1)C(c1cccnc1)N(C(=O)Cc1cccs1)c1cccnc1 (stereo unspecified)	0.0639
Cc1cc(C)nc(/N=C(\N)Nc2ccc(F)c([N+](=O)[O-])c2)n1	-0.14
CC(OC(=O)C1CCCCC1)c1nc2ccccc2[nH]1 (stereo unspecified)	0.156
